Data taken from PubChem BioAssay AID1671188 (National Center for Advancing Translational Sciences (NCATS), 2021).
Screen size: about 100,000 compounds; about 250 (0.25%) were called active. The shares of active, inactive and inconclusive entries below differ from those in the screen. Calls follow the shape of the dose curve; as a rule, active = well fitted inhibition curve with a large enough effect; inconclusive = small, poorly fitted or top-dose-only effect; inactive = flat fitted curve, though single readings scatter. Potencies of inconclusive entries are left out as doubtful fits.

The compounds below were run against Alanine aminotransferase 2 (Homo sapiens) (UniProt Q8TD30) (assay: Primary qHTS assay for inhibitors of Glutamate pyruvate transaminase 2 (GPT2)). Conditions: Recombinant GPT2, coupled pyruvate oxidase/HRP Amplex Red fluorescence; series mostly up to 57.7 µM.
Method in brief: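 GPT2 10ng/uL, a-KG 250uM, L-Ala 2mM, HEPES pH7.5 + 0.0001% Tween; 30 min RT. Then Amplex mix (PO/HRP/ThPP), 30 min RT dark, fluorescence. AOA 50uM used as positive control.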
Also: nearly all actives have a fitted effect of over 60% in size.
Potency is read from the fitted curve at half-maximal effect; tags tell the direction and shape of the fitted curve.

UniProt Q8TD30, sequence (Q8TD30 whole entry, looked up): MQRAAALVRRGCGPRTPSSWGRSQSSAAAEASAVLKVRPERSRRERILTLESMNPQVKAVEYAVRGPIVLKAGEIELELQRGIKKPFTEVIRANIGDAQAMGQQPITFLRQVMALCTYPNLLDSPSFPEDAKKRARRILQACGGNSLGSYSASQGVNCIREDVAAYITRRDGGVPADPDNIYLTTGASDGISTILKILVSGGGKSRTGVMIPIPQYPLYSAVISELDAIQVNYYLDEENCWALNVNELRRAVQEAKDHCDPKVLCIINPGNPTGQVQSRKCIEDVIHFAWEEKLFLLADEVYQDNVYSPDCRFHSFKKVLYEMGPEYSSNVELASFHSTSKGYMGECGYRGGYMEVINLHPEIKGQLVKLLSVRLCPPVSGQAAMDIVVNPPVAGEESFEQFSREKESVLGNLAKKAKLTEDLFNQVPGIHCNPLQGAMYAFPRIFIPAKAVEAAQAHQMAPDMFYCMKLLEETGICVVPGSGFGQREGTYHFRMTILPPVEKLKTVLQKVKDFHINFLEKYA

SMILES | Potency
CN(Cc1ccccc1C(F)(F)F)C(=O)Nc1ccc(Cl)cc1 | inactive
CCN1CCC[C@@H]1CNC(=O)c1ccc2c(c1)NC(=O)/C(=C/c1ccccc1F)S2 | inconclusive [inhibitor, single point]
CC(O)C1C(=O)N2C(C(=O)O)=C(SC3CNC(C(=O)N(C)C)C3)C(C)C12 (stereo not drawn) | inconclusive [inhibitor, full curve, poor fit]
CC(C)Oc1ccc(CN2CCC3(CCNCC3)C2)cc1 | inconclusive [inhibitor, partial curve, poor fit]
O[C@]1(c2ccccc2)CCN(Cc2ccco2)C[C@H]1N1CCCC1 | inconclusive [inhibitor, single point]
Cc1ccc(-c2cc(N3CCCN(C(=O)Cc4ccc(F)cc4)CC3)n[nH]2)cc1C | inconclusive [inhibitor, partial curve]
CCC(N)(CC)c1cn(CC2CCCN(C(=O)Nc3ccsc3)C2)nn1 (stereo not drawn) | inconclusive [inhibitor, full curve, poor fit]
COc1ccc(CN2C[C@@H](F)[C@@H](OCc3nc4ccncc4[nH]3)C2)cn1 | inconclusive [inhibitor, single point]
CC(C(=O)NCCc1noc(-c2cccnc2)n1)c1ccccc1 (stereo not drawn) | inactive
O=C1CC(c2ccccc2)N(C(=O)Cc2cccnc2)CCCCCN1 (stereo not drawn) | inactive
Cc1nn(C)c2nc(-c3ccccn3)nc(N3CCC(c4ccc(F)cc4)C3)c12 (stereo not drawn) | inconclusive [inhibitor, partial curve]
COC(=O)[C@@H]1Cc2ncn(Cc3ccc(Cl)cc3)c2CN1C(=O)c1ccccc1OC | inconclusive [inhibitor, full curve, poor fit]
COc1ccc(Nc2cnc3ccc(-c4ccc(OC)nc4)nn23)cn1 | inconclusive [inhibitor, partial curve, poor fit]
CC1(C)[C@H](Cc2cc(CN3CCN(c4ccccc4)CC3)on2)C[C@@H]1NC(=O)NCc1ccccc1 | inactive
CCC(=O)N1CCc2c(C(=O)NCc3ccncc3)cccc21 | inactive
Cc1noc(=O)c2ccc(NC(=O)C(O)(CC(C)(C)c3cccc4c3OCC4)C(F)(F)F)cc12 (stereo not drawn) | inactive
CC(=O)N1CCCN(C(=O)C2CCCCN2Cc2ccc(-c3ccsc3)cc2)CC1 (stereo not drawn) | inconclusive [inhibitor, single point]
c1cn(-c2ccc(N3CCCCCC3)nc2)c(-c2cc3n(n2)CCCNC3)n1 | inconclusive [inhibitor, single point]
Cc1nccn1-c1ccccc1CNC(=O)[C@H]1CC[C@@H](N)C1 | inactive
COc1cc2c(cc1O)CCC1C2CC[C@@]2(C)C1CC[C@@H]2O (stereo partly drawn) | inconclusive [inhibitor, single point]
O=C(CCC1CCCN(Cc2nc3c(s2)CCCC3)C1)Nc1ccccc1F (stereo not drawn) | inactive

SMILES | Potency
O=C(CCC[C@H]1NC[C@@H]2C[C@H]1CN(Cc1ccccc1)C2)N1CCN(Cc2ccccc2F)CC1 | inconclusive [inhibitor, partial curve]
O=C(NC1CCN(c2cc(-c3cccs3)[nH]n2)C1)c1ccc(F)cc1F (stereo not drawn) | inconclusive [inhibitor, partial curve]
CC#CCn1cc2c3c(cccc31)[C@H](CC(C)C)N[C@H](C(=O)NCc1ccco1)C2 | inconclusive [inhibitor, single point]
Cn1ncc2c(C(=O)NCc3cccc(F)c3)cc(-c3ccccc3)nc21 | inconclusive [inhibitor, single point]
CCc1ccc(-c2cc3n(n2)CCCN(C(=O)CCc2cc(Cl)no2)C3)cc1 | inconclusive [inhibitor, single point]
Cn1ccnc1C(=O)N1CCN(C(=O)N2CC3CC(C2)[C@H]2CCCC(=O)N2C3)CC1 (stereo partly drawn) | inactive
COc1ccc(CNC(=O)CCC2CCCN(C(=O)CCN3CCCCO3)C2)c(OC)c1 (stereo not drawn) | inconclusive [inhibitor, partial curve]
Cc1ccc(O[C@H]2COCC[C@H]2NC(=O)Cc2c(F)cccc2Cl)cn1 | inconclusive [inhibitor, full curve, poor fit]
CCOC(=O)C1CCCCN1C(=O)c1c(C)oc2c1CN(Cc1cccc(F)c1)CC2 (stereo not drawn) | inconclusive [inhibitor, single point]
O=C(Cc1cccc(Cl)c1)N1CCC(C(=O)N2CCC(c3ccccc3)CC2)CC1 | inconclusive [inhibitor, full curve, poor fit]
CC(C)CCN1CCc2nc(C(C)C)nc(-c3ccc(O)cc3)c2C1 | inconclusive [inhibitor, single point]
Cc1cccc(N2Cc3c(NCCCc4ccccc4)ncnc3N(C)CC2=O)c1 | inconclusive [inhibitor, partial curve, poor fit]
CC1OC(OC2C(O)C(OC3CCC4(C)C(CCC5(C)C4CC=C4C6CC(C)(COC7OC(CO)C(O)C(O)C7O)CC(O)C6(C)CCC45C)C3(C)C)OC(C(=O)O)C2O)C(O)C(O)C1OC1OCC(O)C(O)C1O (stereo not drawn) | inactive
CNC(=O)C(C)(C)N1CCC[C@H]1C(=O)NCc1ccccc1 | inconclusive [inhibitor, full curve, poor fit]
O=C(CCCn1ccnc1)N1CCC2(CCC(=O)N(Cc3ccncc3)C2)CC1 | inconclusive [inhibitor, partial curve, poor fit]
O=C(c1ccccc1Cl)N1CCC2(CC1)CCN(Cc1cccs1)c1ccccc1O2 | inconclusive [inhibitor, full curve, poor fit]
COc1ccc(C(=O)Nc2ccc([C@H]3OCC(=O)N(C)[C@@H]3CO)cc2)cc1 | inactive
O=C(NC[C@H]1O[C@H](Cc2cc(CN3CCOCC3)on2)CC[C@@H]1O)N1CCOCC1 | inconclusive [inhibitor, single point]
CCC(CC)NC(=O)c1ccc2c(c1)N(S(C)(=O)=O)CC2 | inactive
O=C(Nc1cccc(F)c1)N1Cc2[nH]cnc2C[C@H]1c1nc(-c2ccc(F)c(Cl)c2)no1 | inactive
CC(C)n1cc2cc(C(=O)NCc3ccc(N4CCOCC4)cc3)sc2c1 | inconclusive [inhibitor, full curve, poor fit]

SMILES | Potency
O=C(NC1CCN(c2cc(-c3ccc(Cl)cc3)[nH]n2)C1)c1ccc2cc[nH]c2c1 (stereo not drawn) | inconclusive [inhibitor, partial curve]
O=c1[nH]c2cc(C(F)(F)F)c(N3CCOCC3)cc2n(CP(=O)(O)O)c1=O | inconclusive [inhibitor, single point]
Cc1ccc(OCc2nc(C3CN(C(=O)c4ccc(Cn5nc(C)cc5C)o4)C3)no2)cc1 | inconclusive [inhibitor, single point]
Cc1cn(C2C=CC(CO)O2)c(=O)[nH]c1=O (stereo not drawn) | inconclusive [inhibitor, single point]
O=C1CCN(C(=O)[C@@H]2CCCN2Cc2cccc(F)c2)CCCCCCN1 | inconclusive [inhibitor, single point]
O=C1CCN(Cc2ccc3c(c2)CCO3)CCCCCCN1 | inconclusive [inhibitor, single point]
COc1ccc(N2CCN(C(=O)CN3C(=O)NC4(CCOCC4)C3=O)CC2)cc1 | inconclusive [inhibitor, full curve]
COc1ccc(Nc2ccnc(N3CCN(C(=O)C4CCCC4)CC3)n2)cc1 | inactive
CC(C)NC(=O)N1CCC(c2nnc3n2CCNC3)CC1 | inconclusive [inhibitor, full curve, poor fit]
COCc1ncc(C)n1CC1CCCN(Cc2cccnc2)C1 (stereo not drawn) | inactive
COCCn1c(=O)c(C(=O)N2CCN(C(=O)c3cccc(Cl)c3)CC2)nc2cccnc21 | inactive
CN1c2cc(C(=O)N3CCc4ccccc4C3)ccc2C(=O)N2CCCC21 (stereo not drawn) | inconclusive [inhibitor, partial curve, poor fit]
C[C@H](O)c1c(-c2ccc(Cl)cc2)noc1C(=O)NC1CC1 | inconclusive [inhibitor, partial curve, poor fit]
COc1ccccc1N1CCN(C(=O)c2ccc3c(c2)C(O)CCCCCN3C)CC1 (stereo not drawn) | inactive
CC(C)(O)CCc1cccc(C(=O)NCCNc2cccnc2)c1 | inconclusive [inhibitor, single point]
COc1cccc(C(=O)NC2CCN(c3nnc4ccccn34)CC2)c1 | inconclusive [inhibitor, single point]
CC(=O)N1CC2(CCN(Cc3cnc(N)nc3)CC2)CC1C(=O)O (stereo not drawn) | inconclusive [inhibitor, full curve, poor fit]
O=c1c2nc(-c3ccncc3)ccc2ncn1-c1ccccc1 | inactive
COc1ccc(CNC(=O)CC[C@H]2CNC(=O)[C@H]3NCC[C@H]3N2C)cc1 | inconclusive [inhibitor, partial curve, poor fit]
CC(=O)N1CCC(N2C[C@H](NC(=O)c3ccoc3C)[C@@H](C3CC3)C2)CC1 | inactive
Cc1onc(-c2c(Cl)cccc2Cl)c1C(=O)N[C@@H]1C(=O)N2[C@@H]1SC(C)(C)[C@@H]2C(=O)O | inconclusive [inhibitor, partial curve, poor fit]
